# Source: PubChem BioAssay AID463173 (ICCB-Longwood Screening Facility, Harvard Medical School, 2010)
# Out of some 52,000 compounds screened, about 4,300 (8.3%) were called active. Rule as the data show it: active = survival mostly below about 52% (no sharp cut-off); inactive = mostly above about 56%. The list shows a part of the results.
# System: DeltatarO mutant
# Experiment: growth inhibition of S. aureus wild type versus tarO mutant, primary screen, teichoic acid synthesis inhibitors, RN4220, OD600 (AID 463173)
# Conditions: OD600, 18 h, stronger effect = lower value, screened at 18.75 µg/mL (by protocol)
row,Structure (SMILES),survival
1,Cc1ccc2ncc(C(=O)NCc3ccccc3Cl)c(=O)n2c1,inactive: 94%
2,O=C(Nc1ccccc1)Nc1ccc2c(c1)C(=O)OC2,inactive: 101%
3,Cc1ccc(C)c(N2CCN(CCCNC(=O)C3COc4ccccc4C3)CC2)c1 (stereo unspecified),inactive: 70%
4,Cc1cccc(NC(=O)c2ccc(C(=O)Nc3cccc(C)c3C)cc2)c1C,inactive: 82%
5,Cc1nc(N)sc1C(C)(C)C,inactive: 86%
6,CN1CCN(C(c2ccccc2Cl)c2sc3nc(-c4ccco4)nn3c2O)CC1 (stereo unspecified),inactive: 131%
7,CCC(=O)N1CCc2cc(Br)cc(S(=O)(=O)N3CCN(c4ccc(C(C)=O)cc4)CC3)c21,inactive: 59%
8,COc1ccc(-c2cc(C(=O)Oc3cccc(C)c3)c3ccccc3n2)cc1,active: -2%
9,Cc1ccc(CCNC(=O)C2CCN(c3nnc(C)c4c(C)n(-c5ccccc5)nc34)CC2)cc1,inactive: 71%
10,COc1ccc(C)cc1NCc1nnc2n1CCCCC2,active: 20%
11,Cc1cc(OC(C)C(=O)N(Cc2ccco2)Cc2ccccc2F)cc(C)c1Cl (stereo unspecified),inactive: 81%
12,O=C(CCCCn1c(=O)c2ccccc2n(Cc2ccc(Cl)cc2)c1=O)NCc1ccccc1Cl,inactive: 97%
13,COc1ccc(NC(=O)CSc2nc3ncccc3[nH]2)c(OC)c1,inactive: 116%
14,Cn1c(=O)cc(OCC(=O)N2CCN(c3ccccc3)CC2)c2ccccc21,inactive: 94%
15,CN(C)C(=O)CN1CCN(c2ccc(F)cc2)CC1,inactive: 107%
16,COc1ccc(NC(=O)C2CCCN(C(=O)c3cnn(-c4ccc(F)cc4)c3-n3cccc3)C2)cc1 (stereo unspecified),active: 47%
17,CCc1ccccc1NC(=O)c1ccc(F)c(S(=O)(=O)NC2CCCCCC2)c1,inactive: 83%
18,Cc1ccc(NC(=O)CSc2nc3ccccc3c3nc(CCn4cncc4C)nn23)cc1F,inactive: 88%
19,Cc1ccc(NC(=O)CSCc2cnn(-c3ccccc3)c2-n2cccc2)c(C)c1,inactive: 78%
20,CCOc1cccc2sc(N(Cc3cccnc3)C(=O)C3CCCCC3)nc12,inactive: 91%
21,Cc1cc2oc(=O)c(CC(=O)NCCc3ccccc3)c(C)c2c2occ(C(C)(C)C)c12,inactive: 76%
22,CC(=Nc1ccc(C)cc1)c1ccc(O)cc1O,inactive: 85%
23,Cc1cccc(N2CCN(C(=O)c3cn(C4CCCCC4)c(=O)c4c3c3ccccc3n4C)CC2)c1C,inactive: 115%

row,Structure (SMILES),survival
1,Cc1cc(C(=O)O)c2c(=O)n(C)c(=O)n(C)c2n1,inactive: 99%
2,COc1ccc(-c2cn3c(n2)sc2cc(C(=O)NC4CCCc5ccccc54)ccc23)cc1 (stereo unspecified),inactive: 58%
3,CCCOC(=O)c1c(C)oc2c1cc(NS(=O)(=O)c1ccc(OCC)cc1)c1ccccc12,active: 56%
4,CCCCN(C)CCCNC(=O)c1ccc2nc(N3CCCCC3)sc2c1,inactive: 99%
5,CCN(C(=O)CCc1nc(-c2ccc(C)cc2)no1)c1cc(C)ccc1C,active: -4%
6,CCc1cc(C(=O)O)c(NC(=O)c2ccccc2)s1,inactive: 65%
7,Cc1cccc(NC(=O)C2CCCN(S(=O)(=O)c3cccc4nonc34)C2)c1C (stereo unspecified),inactive: 119%
8,CCN1CCC(N(Cc2ccc3c(c2)OCO3)C(=O)Nc2cc(Cl)ccc2C(=O)OC)CC1,inactive: 126%
9,COc1ccc(N2CC(NC(=O)/C=C\c3ccc(OC)c(OC)c3)CC2=O)cc1 (stereo unspecified),inactive: 55%
10,CCc1ccc(-n2c(SC(CC)C(=O)N(CC)CC)nc3n[nH]c(C)c3c2=N)cc1 (stereo unspecified),inactive: 128%
11,Cc1nc(CC(=O)Nc2ccc(C)c(C)c2)cs1,active: 40%
12,CCOC(=O)N1CCN(S(=O)(=O)N2CCCC(C(=O)NCc3cc(OC)ccc3OC)C2)CC1 (stereo unspecified),inactive: 70%
13,CCOCCCNC(=O)C1CCCN(Cc2nc(-c3ccc(CC)cc3)oc2C)C1 (stereo unspecified),inactive: 76%
14,CC(C)NC(=O)Cn1cc(C(=O)C(C)C)c2ccccc21,inactive: 102%
15,CCc1ccc(OCC(=O)N(Cc2cccs2)c2ccc(Cl)cc2)cc1,inactive: 66%
16,CCN(Cc1ccccc1)Cc1c(O)ccc2c(=O)c(-c3ccccc3OC)c(C(F)(F)F)oc12,inactive: 62%
17,Cc1cccc(OCCSc2nc3ccccc3n2CC(=O)N2CCCCC2)c1C,active: 28%
18,CCOC(=O)c1ccc(N2CCN(c3cc(Cl)ccc3C)CC2)c(NC(=O)Nc2cccc(OC)c2)c1,inactive: 76%
19,CC(=O)Nc1nonc1-c1nnc(SCC(=O)Nc2ccc(F)cc2F)n1-c1ccccc1,active: 13%
20,Cc1ccc(Cn2c(CNS(=O)(=O)c3c(C)cc(C)cc3C)nc3cccnc32)cc1,inactive: 122%
21,Cc1c(C)n(Cc2ccccc2)c2ccc(C(=O)NC(C)c3ccccc3)cc12 (stereo unspecified),inactive: 78%
22,COc1ccc(OCC(=O)Nc2ccc(C(=O)OCc3cc(=O)n4nc(C)sc4n3)cc2)cc1,inactive: 105%
23,CCOc1ccccc1N(CC)C(=O)Nc1cn(C)c(=O)c2ccccc12,inactive: 94%

row,Structure (SMILES),survival
1,Cc1cccc2cc(C#N)c(SCC(=O)NCC3CCCO3)nc12 (stereo unspecified),inactive: 98%
2,Cc1ccc(/C=C/c2onc(C)c2S(=O)(=O)N2CCC(C(=O)N3CC(C)Oc4ccccc43)CC2)cc1 (stereo unspecified),inactive: 116%
3,CCCCCn1c(=O)[nH]c2cc(C(=O)N3CCN(c4ccccc4)CC3)ccc2c1=O,inactive: 68%
4,COc1ccc(N2CCN(C(CNC(=O)CC(C)C)c3ccc4c(c3)OCO4)CC2)cc1 (stereo unspecified),inactive: 75%
5,Cc1ccc(-c2nc3ccc(Cl)cn3c2Nc2ccc3c(c2)OCCO3)o1,inactive: 58%
6,COc1ccc(-c2nc(CS(=O)CC(=O)NCc3ccc(F)cc3)c(C)o2)cc1OC (stereo unspecified),inactive: 86%
7,CS(=O)(=O)N(CC(=O)N1CCN(Cc2ccc3c(c2)OCO3)CC1)Cc1ccccc1,inactive: 70%
8,CCCCOc1ccc(C2=NC(c3ccncc3)=Nc3ccc(Br)cc3N2)cc1,active: 12%
9,CCCC(=O)Nc1ccc(Cl)c(NC(=O)c2cccnc2Cl)c1,inactive: 106%
10,CCc1c(C)sc2c1CCN(C(=O)Nc1ccccc1C(F)(F)F)C2c1ccccc1 (stereo unspecified),inactive: 70%
11,Cc1ccccc1NC(=O)c1c(NC(=O)C(C)Oc2cccc(Cl)c2)sc2c1CCCC2 (stereo unspecified),active: 40%
12,COc1cc(Cl)c(C)cc1NC(=O)CCc1c(C)nc2cc(-c3cccc(F)c3)nn2c1C,inactive: 74%
13,CCn1c(C(=O)N2CCCC(C(=O)NCCCOC)C2)cc2sccc21 (stereo unspecified),inactive: 82%
14,CC1CC(C)(C)NC(=S)O1 (stereo unspecified),inactive: 77%
15,Cc1ccc(NC(=O)c2oc3ccccc3c2NC(=O)Cc2cccs2)cc1,inactive: 51%
16,COc1ccc2c(c1)cc1c(=O)n(CC(=O)NC3CCCCC3)nc(C)n12,inactive: 70%
17,CC1=C(C#N)C(=O)NC(C)(C)C1,inactive: 76%
18,CCc1ccc(NC(=O)CC2C(=O)N(c3cccc(OC)c3)C(=O)N2Cc2ccco2)cc1 (stereo unspecified),active: 25%
19,CCOc1ccccc1NC(=O)Nc1nnc(N(C)Cc2ccccc2)s1,active: 53%
20,CSc1nnc(C2CCCN2)n1C (stereo unspecified),inactive: 58%
21,COc1ccccc1NC(=O)CCS(=O)(=O)c1ccc2nc(C)sc2c1,inactive: 45%
22,Cc1ccc(C(Nc2ccccn2)c2ccc3cccnc3c2O)cc1 (stereo unspecified),active: 1%
23,COc1cc(Cl)c(NS(=O)(=O)c2ccc3c(c2)CC(C)N3C(=O)C2CCC2)c(OC)c1 (stereo unspecified),inactive: 80%

row,Structure (SMILES),survival
1,CC(=O)N1CCC(N(C(=O)Nc2ccc(C)c(F)c2)C(C)C)CC1,inactive: 72%
2,Cc1nc2ccccn2c(=O)c1NC(=O)c1c(F)cccc1F,inactive: 83%
3,CC1CCN(C(=O)c2c(NC(=O)c3ccccc3F)sc3c2CCC(C(C)(C)C)C3)CC1 (stereo unspecified),active: -4%
4,O=C(c1cccs1)N(Cc1cccnc1)c1nc2ccc(F)cc2s1,inactive: 79%
5,Cc1ccc(OCC(=O)Nc2ccccc2C(=O)OCc2cc(=O)n3nc(C4CC4)sc3n2)cc1,inactive: 94%
6,COc1cccc(C(=O)Nc2cc(-c3cn4cccnc4n3)ccc2C)c1OC,inactive: 80%
7,CCOc1ccc(NC(=O)c2sc3nc4c(cc3c2N)CCCCCC4)cc1,inactive: 57%
8,NCCCCCc1nnc(SCc2ccc(F)cc2)o1,inactive: 62%
9,CCCc1nn2c(=O)cc(COC(=O)c3cccc(NC(=O)CCc4ccccc4)c3)nc2s1,inactive: 131%
10,COCCNC(=O)CSc1c2c(nc3cc(Cl)ccc13)CCCC2,inactive: 71%
11,COCCCNC(=O)c1ccc2nc(Cc3ccc(OC)cc3)oc2c1,inactive: 69%
12,CCOc1ccc(CNC(=O)C2CCN(S(=O)(=O)N3CCCCC3)CC2)cc1,inactive: 72%
13,CCn1cc(S(=O)(=O)c2ccc(OC)cc2)c(=O)c2cc(F)c(N3CCC(C)CC3)cc21,inactive: 83%
14,Cc1ccc(CN(Cc2ccco2)C(=O)COc2c(C)cc(C)cc2C)cc1,inactive: 54%
15,CCCN(CCC)CCCNC(=O)C1CCC(CNS(=O)(=O)c2cccc3nsnc23)CC1 (stereo unspecified),inactive: 94%
16,CCCCNS(=O)(=O)c1ccc2nc(-c3cccnc3)cc(C(=O)NCCC)c2c1,inactive: 80%
17,Oc1ccc(-c2nc3ccccn3c2Nc2ccc3c(c2)OCCO3)cc1,inactive: 75%
18,CC(C)C(c1nnnn1C(C)(C)C)N(Cc1cc2cc3c(cc2[nH]c1=O)OCCO3)C1CCCCC1 (stereo unspecified),inactive: 109%
19,Cc1ccc(C)c(N2CCN(C(=O)Cn3c(=O)c4cccn4c4ccc(F)cc43)CC2)c1,inactive: 64%
20,Cc1ccc(NC(=O)CSCn2nnc3c(=O)[nH]c(Cc4ccc(F)cc4)nc32)c(C)c1,inactive: 94%
21,COc1cc2c(=O)c(C(=O)c3ccc(C)c(C)c3)cn(Cc3ccccc3)c2cc1OC,inactive: 79%
22,Cc1cccc(N2CCN(C(=O)c3ccc4c(c3)N(Cc3ccccc3F)C(=O)c3ccccc3S4=O)CC2C)c1 (stereo unspecified),inactive: 88%
